Assay results taken from the antibiotic and cytotoxicity screens of Wong et al. (2023).
Some of the results follow.

Experiments:
HSkMC = human skeletal muscle cells; assay: cytotoxicity call (relative viability < 0.9); conditions: 10 µM
HepG2 = assay: cytotoxicity call (relative viability < 0.9); conditions: 10 µM
S. aureus RN4220 = assay: growth inhibition call (relative growth <= 0.2); conditions: 50 µM

NC1CCN(C(=O)c2c[nH]c3ccccc23)CC1
inactive: cytotoxicity call (HSkMC) | cytotoxicity call (HepG2) | growth inhibition call (S. aureus RN4220)

COc1cc(/C=C/C(=O)OC[C@H]2O[C@@H](O[C@@H]3OC=C[C@H]4[C@H](O)[C@@H]5O[C@]5(CO)[C@@H]34)[C@H](O)[C@@H](O)[C@@H]2O)ccc1O
inactive: cytotoxicity call (HSkMC) | cytotoxicity call (HepG2) | growth inhibition call (S. aureus RN4220)

C[C@H](CO)N1C[C@H](C)[C@H](CN(C)Cc2ccc3c(c2)OCO3)Oc2ccc(NS(=O)(=O)c3cn(C)cn3)cc2C1=O
inactive: cytotoxicity call (HSkMC) | cytotoxicity call (HepG2) | growth inhibition call (S. aureus RN4220)

CC(C)NC(=O)Nc1cccc2c1O[C@H](CN(C)S(=O)(=O)c1ccccc1)[C@@H](C)CN([C@@H](C)CO)C2=O
inactive: cytotoxicity call (HSkMC) | cytotoxicity call (HepG2) | growth inhibition call (S. aureus RN4220)

O=C(C[C@@H]1CC[C@H]2[C@@H](COC[C@H](O)CN2Cc2ccccc2F)O1)N[C@@H]1CCN(Cc2ccccc2)C1
inactive: cytotoxicity call (HSkMC) | cytotoxicity call (HepG2) | growth inhibition call (S. aureus RN4220)

C[C@@H]1CN([C@H](C)CO)C(=O)c2cc(NC(=O)CCCCCC(=O)Nc3ccccc3N)ccc2O[C@H]1CN(C)C(=O)Nc1ccc(C(F)(F)F)cc1
inactive: cytotoxicity call (HSkMC) | cytotoxicity call (HepG2) | growth inhibition call (S. aureus RN4220)

CC(C)CC#Cc1ccc2c(c1)O[C@H](CN(C)C(=O)c1ccncc1)[C@H](C)CN([C@@H](C)CO)S2(=O)=O
inactive: cytotoxicity call (HSkMC) | cytotoxicity call (HepG2) | growth inhibition call (S. aureus RN4220)

C[C@@H]1CCCCO[C@H](CN(C)C(=O)Cc2ccccc2)[C@H](C)CN([C@H](C)CO)C(=O)c2cc(NC(=O)Nc3ccccc3)ccc2O1
inactive: cytotoxicity call (HSkMC) | cytotoxicity call (HepG2) | growth inhibition call (S. aureus RN4220)

C[C@@H]1CN([C@H](C)CO)C(=O)c2cc(NC(=O)CCCCCC(=O)Nc3ccccc3N)ccc2O[C@@H]1CN(C)Cc1ccc(Cl)c(Cl)c1
inactive: cytotoxicity call (HSkMC) | cytotoxicity call (HepG2) | growth inhibition call (S. aureus RN4220)
